Source: PubChem BioAssay AID485294 (National Center for Advancing Translational Sciences (NCATS), 2010)
The whole screen tested about 370,000 compounds, of which about 150 (0.041%) were called active. The shares of active, inactive and inconclusive entries below differ from those in the screen. The call rests on the fitted dose curve; in most records, active means well fitted inhibition curve with a large enough effect; inconclusive means small, poorly fitted or top-dose-only effect; inactive means flat fitted curve, though single readings scatter. No potency is given beside an inconclusive call; the fits are too rough.

Biological target: Beta-lactamase (Escherichia coli (strain K12)) (UniProt P00811)
Experiment: qHTS Inhibitors of AmpC Beta-Lactamase (assay with detergent); further: nearly all actives have a fitted effect of over 25% in size
Conditions: AmpC hydrolysis of nitrocefin, absorbance 480 nm, 0.01% Triton; series mostly up to 114 µM
How it was run: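 AmpC (5.3 nM in the dispensed reagent) in 20 mM phosphate pH 7.0 with 0.01% (detergent screen) or 0.0001% Triton X-100 was preincubated with compounds for 15 min at room temperature. Nitrocefin was then added from an 800 uM solution, and hydrolysis was followed at 480 nm.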
Potency means the concentration at half of the fitted maximal effect; tags describe the fitted curve by direction and shape.

Sequence of UniProt P00811 (P00811 whole entry, looked up): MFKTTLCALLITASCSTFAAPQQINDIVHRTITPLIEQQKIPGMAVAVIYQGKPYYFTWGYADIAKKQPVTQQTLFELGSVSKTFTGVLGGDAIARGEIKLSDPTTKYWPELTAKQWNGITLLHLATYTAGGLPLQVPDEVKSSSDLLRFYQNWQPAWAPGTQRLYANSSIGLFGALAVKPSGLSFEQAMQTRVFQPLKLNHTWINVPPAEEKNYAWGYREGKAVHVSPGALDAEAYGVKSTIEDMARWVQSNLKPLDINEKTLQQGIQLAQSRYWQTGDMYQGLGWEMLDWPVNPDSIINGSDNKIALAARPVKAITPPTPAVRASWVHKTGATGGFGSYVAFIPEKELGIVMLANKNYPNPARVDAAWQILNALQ

Structure (SMILES) | Potency
O=C(CN1CCN(S(=O)(=O)c2ccc(Cl)cc2)CC1)N1CCCC1 | inconclusive [inhibitor, full curve, poor fit]
CCN(CC)c1ccc(NC(=O)COC(=O)CSc2ccc(Br)cc2C)cc1 | inconclusive [inhibitor, partial curve, poor fit]
CC(=O)N(CN1C(=O)C2CC=CCC2C1=O)c1cccc(Cl)c1 (stereo not given) | inconclusive [inhibitor, partial curve, poor fit]
Cc1ccc(S(=O)(=O)Nc2ccc(O)c3cccnc23)cc1 | inactive
Cc1cc(C)nc(NCCC(=O)O)n1 | inconclusive [inhibitor, partial curve]
Nc1nn(-c2ccccc2)nc1C(=O)OCc1c(F)cccc1Cl | inactive
CC(C)(C)c1ccc(C(=O)NCCCNC(=O)c2ccccn2)cc1 | inactive
COc1ccc2oc(C(=O)Nc3nccs3)c(C)c2c1 | inconclusive [inhibitor, full curve]
COc1ccc2cnnc(SCC(=O)Nc3ccccc3)c2c1OC | inconclusive [inhibitor, full curve, poor fit]
CCOC(=O)C1CCCN(C(=O)c2ccc3c(c2)N(Cc2ccccc2)C(=O)c2ccccc2S3(=O)=O)C1 (stereo not given) | inactive
COc1ccc(C2CC(c3cccs3)=NN2C(=O)c2ccc(Br)o2)cc1 (stereo not given) | inactive
CC(=O)c1ccc(-c2ccc(C(=O)NC3CCCCCC3)o2)cc1 | inconclusive [inhibitor, partial curve]
O=C(CSc1ccccn1)Nc1nc2c(ccc3ccccc32)s1 | inconclusive [inhibitor, partial curve, poor fit]
Cc1cccnc1NCC(O)COc1ccccc1 (stereo not given) | inconclusive [inhibitor, full curve]
Cc1ccc(C(=O)Nc2sc3c(c2C(=O)O)CCCC3)o1 | inactive
CC1(C)NC(C)(C)c2nonc2/C1=N\O | inconclusive [inhibitor, partial curve, poor fit]
COCCN(C(=O)COC(=O)c1cc2ccccc2cc1OC)c1c(N)n(Cc2ccccc2)c(=O)[nH]c1=O | inconclusive [inhibitor, partial curve]
O=C(CSc1nnc(-c2cccnc2)o1)Nc1nccs1 | inactive
COc1ccc(-n2c3c(cc(C(=O)N4CCCCC4)c2=O)C(=O)CC(C)(C)C3)cc1 | inconclusive [inhibitor, full curve]
Cc1cc(-c2ccc(C(=O)O)s2)cnc1N | inactive
O=C(Nc1ccc(NC(=O)c2cc3ccccc3o2)cc1)c1ccccc1 | inactive
Cc1ccc([C@@H]2CC=C(C(=O)O)[C@H](c3ccccc3F)N2S(=O)(=O)c2ccc(C)cc2)cc1 | inconclusive [inhibitor, single point]
Cn1c(SCC(=O)N2c3ccccc3CCc3ccccc32)nnc1-c1cc2ccccc2cc1O | inactive
Clc1ccc(N2CCOCC2)nn1 | inconclusive [inhibitor, partial curve]

Structure (SMILES) | Potency
COCCNC(=O)C(c1cccs1)N(C(=O)Cn1nnc2ccccc21)c1cccc(C)c1 (stereo not given) | inconclusive [inhibitor, full curve, poor fit]
CSc1ccc(/C=N/n2c(C)nc3ccccc3c2=O)cc1 | inactive
Cc1cc(N=Cc2c(O)ccc3ccccc23)no1 | inconclusive [inhibitor, full curve]
CSCCC(NS(=O)(=O)c1ccc2c(c1)oc(=O)n2C)C(=O)NC1CCN(Cc2ccccc2)CC1 (stereo not given) | inactive
COCCOC(=O)C1=C(N)Oc2c(oc(CO)cc2=O)C1c1c(F)cccc1Cl (stereo not given) | inconclusive [inhibitor, partial curve]
O=C(NCN1CCc2ccccc2C1)c1ccccc1 | inconclusive [inhibitor, full curve, poor fit]
Cc1ccc(C(=O)Nc2cc(Cl)ccc2OC(=O)c2ccc(C)cc2)cc1 | inconclusive [inhibitor, partial curve]
CCn1c(=O)cc(SCC(=O)Nc2ccc(Cl)cc2)c2ccccc21 | inconclusive [inhibitor, full curve]
CCN(CC)c1ccc(/C=N/NC(=O)c2ccoc2C)cc1 | inactive
CCC(=O)N1c2ccccc2-c2nnc(SC)nc2OC1c1ccc(N(C)C)cc1 (stereo not given) | inconclusive [inhibitor, full curve]
Cn1c(N)c(C(=O)COC(=O)c2ccco2)c(=O)n(C)c1=O | inconclusive [inhibitor, full curve, poor fit]
O=C(O)/C=C/c1cccc(OCc2ccccc2)c1 | inconclusive [inhibitor, full curve, poor fit]
COc1ccc(CNC(=O)CSc2nnnn2-c2ccc(O)cc2)cc1 | inconclusive [inhibitor, full curve]
CC1=C(CC(=O)c2ccc(Cl)cc2)C(=O)c2ccccc2C1=O | inactive
COc1ccc(C(C)=O)cc1CSc1nc2ccccc2c(=O)n1-c1cccc(C)c1 | inconclusive [inhibitor, full curve, poor fit]
Cc1cc(C(=O)O)ccc1-c1ccc(/C=C2\SC(=O)N(CC(=O)Nc3ccc4c(c3)OCO4)C2=O)o1 | inactive
N#Cc1cc(-c2ccccc2)oc1NC(=O)c1ccco1 | inconclusive [inhibitor, full curve, poor fit]
CC(/C=C/C(=O)c1ccc(C)cc1)=C\c1ccccc1 | inconclusive [inhibitor, single point]
CN1/C(=C\C=N\NC(=O)c2ccc(O)cc2)C(C)(C)c2ccccc21 | inconclusive [inhibitor, full curve, poor fit]
C=C1CC[C@@H]2[C@](C)(CO)[C@H](O)CC[C@@]2(C)[C@@H]1/C=C/C1=CCOC1=O | inactive
COc1ccc(Cc2nc3ccc(C(=O)NC4CCOC4)cc3o2)cc1 (stereo not given) | inconclusive [inhibitor, partial curve]
COc1cc(C(=O)Nc2nc(-c3cccs3)cs2)cc(OC)c1OC | inactive
COc1cccc(CNC(=O)c2cc3c(C)nc4ccccc4c3o2)c1 | inconclusive [inhibitor, full curve]
Cc1cccc(-n2c(CNC(=O)Cc3ccccc3)n[nH]c2=S)c1 | inconclusive [inhibitor, full curve]

Structure (SMILES) | Potency
CC(C(=O)Nc1ccccc1C(=O)N1CCOCC1)N(c1ccc(Cl)cc1)S(C)(=O)=O (stereo not given) | inconclusive [inhibitor, full curve, poor fit]
Cc1nc2c(-c3ccc(Cl)cc3)c(C)[nH]n2c(=O)c1Cc1ccccc1 | inactive
O=C(NC1CC1)c1ccc(Cn2c(SCc3cccc(F)c3)nc3cccnc32)cc1 | inactive
CN1CCN(NC(=O)c2ccc(Cl)cc2Cl)CC1 | inconclusive [inhibitor, partial curve]
O=C(CN1CCN(C(=O)c2ccccc2)CC1)Nc1ncc(Br)cc1Br | inactive
N#CCCSCc1ccc2oc(C(=O)O)cc2c1 | inconclusive [inhibitor, single point]
CC1(C)OC2C(CO)OC(n3cnc4c(=S)nc[nH]c43)C2O1 (stereo not given) | inactive
COc1ccccc1N(Cc1ccccc1)S(=O)(=O)c1cccc(C(=O)Nc2ncccc2C)c1 | inconclusive [inhibitor, full curve, poor fit]
C/C(=N\NC(=O)c1cccc([N+](=O)[O-])c1)c1cccs1 | inactive
CCN(CC)c1ccc(NC(=O)C(C)C)cc1 | inconclusive [inhibitor, partial curve, poor fit]
CC(C)NC(=O)c1ccc(CN2CCC(Cc3ccccc3)CC2)cc1 | inconclusive [inhibitor, partial curve]
Clc1ccc(Cn2ncc3c(N4CCCCC4)ncnc32)cc1 | inactive
CCN1CCN(C(=O)c2cc3c(=O)n(C)c4ccccc4c3n2C)CC1 | inconclusive [inhibitor, full curve, poor fit]
CCCc1nnc(SCc2ccc(OCC)cc2)n1N | inconclusive [inhibitor, partial curve]
Cc1cc(NS(=O)(=O)c2ccc(NC(=O)CN3C(=O)NC(C)(c4ccccc4)C3=O)cc2)nc(C)n1 (stereo not given) | inconclusive [inhibitor, partial curve]
CCN(Cc1ccccc1)S(=O)(=O)c1ccc(C(=O)N(CCCN(C)C)c2nc3cc4c(cc3s2)OCCO4)cc1 | inconclusive [inhibitor, full curve, poor fit]
CCc1nc(CN(C)C(=O)C2CCC(=O)N(CCc3cccc(F)c3)C2)no1 (stereo not given) | inactive
CC1CCN(C(=O)Cn2nnc(-c3ccccc3)n2)CC1 | inconclusive [inhibitor, partial curve]
Cc1cc(=O)[nH]c(CN2CCOCC2)n1 | inconclusive [inhibitor, partial curve, poor fit]
N#CCc1ccc(NC(=O)/C=C/c2ccc([N+](=O)[O-])o2)cc1 | inactive
Cc1ccc(Nc2c3c(nc4ncnn24)CCC3)cc1 | inconclusive [inhibitor, full curve, poor fit]
Cc1ccccc1NC(=O)c1ccc(CN2CCC(Cc3ccccc3)CC2)cc1 | inconclusive [inhibitor, full curve, poor fit]
